The supplement of paper PMC11417369
The list shows a part of the results.

The sequences below were run on PfHDP1 homeodomain (GST-tagged) (assay: gcPBM binding intensity (ln(normalized median fluorescence intensity)); higher = stronger DNA binding).
How it was run: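 DNA-binding domains from P. falciparum, fused to GST and produced in E. coli, were put on an Agilent 4 × 180k double-stranded probe array for 1 h in 1× PBS holding 1% milk, 0.2 mg/ml BSA, 0.5% salmon testes DNA and 0.03% Triton X-100. Probes were primer-extended, 36 bp long and drawn from intergenic genomic regions, with negative controls included. After Alexa488 anti-GST antibody detection and a 488 nm scan, binding intensity was set as the highest Masliner-normalised natural-log median intensity across replicate spots of either probe orientation.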
“TATTCAAAACGGTATTGTACAAATTTTATAATTTAA [XGTACX_site6928]” was tested, and the “gcPBM binding intensity (ln)” value was 6.3.
For “TGAACATTATAGAAAAGTACTTAGTTTTTAAAAAGA [XGTACX_site6864]”, the “gcPBM binding intensity (ln)” value was 6.75.
For “TATAAACGCACCTACACACACAACGTAAATGCATTG [CACACA_site7120]”, the “gcPBM binding intensity (ln)” value was 8.87.
For “GCCGCACCCAGATACGCACACAAGAAAAAAATATTC [CACACA_site3456]”, the “gcPBM binding intensity (ln)” value was 7.5.
With “TATGGATAAATAAATACACACATAAATTTAAATATA [CACACA_site1282]” the “gcPBM binding intensity (ln)” value was 6.65.
With “TAAAATATAATGATCACACATATAAACAAGTGGGTA [CACACA_site4651]” the “gcPBM binding intensity (ln)” value was 6.47.
In the case of “ATTTTTAAATACAGTACACACATGGGTTTAAATTAT [CACACA_site2884]”, the “gcPBM binding intensity (ln)” value is reported as 6.62.
In the case of “TATTCTAGAATTTTAACACACAAGAATATAAACTTT [CACACA_site6757]”, the “gcPBM binding intensity (ln)” value is reported as 6.13.
In the case of “GATTATTTTAGAAGTACACACATTTATATATAATAA [CACACA_site5429]”, the “gcPBM binding intensity (ln)” value is reported as 6.48.
“TATTTATATTTATATACACACATATATACCTATATA [CACACA_site7820]” was tested, and the “gcPBM binding intensity (ln)” value was 6.58.
For “GGTTATATGATAGGATGTACAATTAAAAGTAAATAT [XGTACX_site5083]”, the “gcPBM binding intensity (ln)” value was 6.85.
For “TTATTATTCTTAAGGATATAACAAAAAAGAAAAATT [CACACA_negctrl_site1402]”, the “gcPBM binding intensity (ln)” value was 6.26.
In the case of “TCCTATAAACAAATTTGTACATATAAGAATATATTC [XGTACX_site3892]”, the “gcPBM binding intensity (ln)” value is reported as 6.71.
In the case of “ATAGTATACAGACACACACACACACGGATATAAATA [CACACA_site6914]”, the “gcPBM binding intensity (ln)” value is reported as 6.96.
In the case of “AAGTTTAAGAAATAATTCATATTTACTTCCATCCTC [GTGCAC_negctrl_site494]”, the “gcPBM binding intensity (ln)” value is reported as 6.18.
“ATATATATATATATATGTACTAAATATTCATCCTTA [XGTACX_site6039]” was tested, and the “gcPBM binding intensity (ln)” value was 9.37.
For “AAATGGAAAAGGTGTACACAAAAAAAAGGGAAAAGC [CACACA_site5331]”, the “gcPBM binding intensity (ln)” value was 7.17.
In the case of “TTTTTTTTTTTTTTTGCACACACATTGAATTATTAT [CACACA_site198]”, the “gcPBM binding intensity (ln)” value is reported as 9.13.
In the case of “TACATATAAATATATAAATATAAATAAATAAATAAA [XGTACX_negctrl_site180]”, the “gcPBM binding intensity (ln)” value is reported as 6.45.
“TTACCAAAAACCTCAAGTACAAAAAATCCCTAATAT [XGTACX_site2313]” was tested, and the “gcPBM binding intensity (ln)” value was 6.55.
With “CTTTATATATAGTGTACACATTAAACAAATCTCAAT [CACACA_site5845]” the “gcPBM binding intensity (ln)” value was 6.78.
In the case of “ATATTTATAATTTTTTGTACACATTTTTTAAAGATA [XGTACX_site1784]”, the “gcPBM binding intensity (ln)” value is reported as 6.52.
For “TATAAGAGAAGAAGAAAAAAAAGGTTTCTATAGAAA [XGTACX_negctrl_site421]”, the “gcPBM binding intensity (ln)” value was 6.35.
“AAGAAGCATAAATGTACACACATATTTATATATTAA [CACACA_site1332]” was tested, and the “gcPBM binding intensity (ln)” value was 6.42.
For “CATATAGTAATATATACACACACTTGTCTTGTAAAA [CACACA_site8238]”, the “gcPBM binding intensity (ln)” value was 6.54.
With “TATATATATATATTATGTACGTATCAGTTTGTATGT [XGTACX_site695]” the “gcPBM binding intensity (ln)” value was 8.92.
For “TTATAAATTAGAGGTACACACAAAAAAAAAAAGAAA [CACACA_site6740]”, the “gcPBM binding intensity (ln)” value was 6.57.
“CACGACATTAACAATACATGCAGAAAAACAAAAAAT [TGCATGCA_site689]” was tested, and the “gcPBM binding intensity (ln)” value was 7.04.
In the case of “ATTTTTAATATTATTACACACACTAAAAAAAAAAAA [CACACA_site1067]”, the “gcPBM binding intensity (ln)” value is reported as 6.41.
With “TTGGTACCTATAGATACACACATATATACATATATA [CACACA_site3402]” the “gcPBM binding intensity (ln)” value was 6.48.
In the case of “TAAGAGTAGTTATATACACACATGTATATTATAGTT [CACACA_site6815]”, the “gcPBM binding intensity (ln)” value is reported as 6.41.
“TATATATGTATATATGGTACAGAATATTCTACATTA [XGTACX_site5077]” was tested, and the “gcPBM binding intensity (ln)” value was 6.62.
In the case of “TACCACATCGGTAAATGTACTTATAAAAAAAAAAAA [XGTACX_site3364]”, the “gcPBM binding intensity (ln)” value is reported as 6.15.
For “CATCCACATATATGTACACACATATATATATATATA [CACACA_site2964]”, the “gcPBM binding intensity (ln)” value was 9.46.
For “CAATCATTTTATTGTTGTACAGTAATTATGAATTCA [XGTACX_site7508]”, the “gcPBM binding intensity (ln)” value was 6.42.
With “AATGGGTTAGCACATACACACCAATATATTATATAT [CACACA_site9011]” the “gcPBM binding intensity (ln)” value was 6.87.
With “ATTTATGATATGTAAACATGCATAAAAATTTCAAAA [TGCATGCA_site858]” the “gcPBM binding intensity (ln)” value was 6.
In the case of “TATAAACTTAATTTGAGTACTTAATAATAATTTTGT [XGTACX_site3730]”, the “gcPBM binding intensity (ln)” value is reported as 6.11.
In the case of “AAACAACAAAAATGATATATATAAAATTTATAATAT [XGTACX_negctrl_site185]”, the “gcPBM binding intensity (ln)” value is reported as 6.42.
In the case of “TATTTAATTATATAAAATTAAATTTTTAATTCTTCC [CACACA_negctrl_site473]”, the “gcPBM binding intensity (ln)” value is reported as 5.92.
“TATGGATTACACAATTGTACAAGAAAAATGTAAATA [XGTACX_site4040]” was tested, and the “gcPBM binding intensity (ln)” value was 7.04.
In the case of “ATGCATAAAAGAAATACACACATAAATATATAAATA [CACACA_site2163]”, the “gcPBM binding intensity (ln)” value is reported as 6.63.
For “TGTCATGATACATACACACACATACACATACACATA [CACACA_site2135]”, the “gcPBM binding intensity (ln)” value was 7.27.
In the case of “CCCACGTATATTTTGTGTACATAAATAAATAAATAA [XGTACX_site4046]”, the “gcPBM binding intensity (ln)” value is reported as 7.24.
